Measured values from PubChem BioAssay AID686979 (National Center for Advancing Translational Sciences (NCATS), 2013).
The campaign covered roughly 420,000 compounds. About 50,000 (12%) were called active. This list was built around the results that the source calls inconclusive (neither active nor inactive); the mix of calls is not that of the screen. Calls come from the whole dose curve; as a rule, active = well fitted inhibition curve with a large enough effect; inconclusive = small, poorly fitted or top-dose-only effect; inactive = flat fitted curve, though single readings scatter. Potencies of inconclusive entries are left out as doubtful fits.

Test: qHTS for Inhibitors of human tyrosyl-DNA phosphodiesterase 1 (TDP1): qHTS in cells in presence of CPT; note: nearly all actives have a fitted effect of over 55% in size
Settings: chicken DT40 Tdp1-/-;hTDP1 cells + 20 nM CPT, ATP luminescence, 48 h; activity change, negative = growth inhibition: at 46.2 µM (top of the series) unless noted
Method in brief: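 Chicken DT40 Tdp1-/- cells complemented with human TDP1, 400 cells/well, exposed to compounds plus 20 nM camptothecin for at least 48 h at 37 C; viability read as ATP content by CellTiter-Glo luminescence.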
% is set by controls: 0 for no effect and ±100 for the full control effect; potency is the fitted concentration of half-maximal effect; tags give direction and shape of the fitted curve.

Question: Which Potency does the source give for `Cc1cccc2sc(N(CCN3CCOCC3)C(=O)CCS(=O)(=O)c3ccccc3)nc12` here?
Answer: active: 16.4 µM

Question: With `CN(c1ccccc1)S(=O)(=O)c1cccc(NC(=O)c2nn(C)c(=O)c3ccccc23)c1` as the molecule, how does the Potency read?
Answer: inconclusive [inhibitor, single point]

Question: With `CCOC(=O)CSc1n[nH]c(NS(=O)(=O)c2ccccc2C(F)(F)F)n1` as the molecule, how does the Potency read?
Answer: inactive

Question: For `FC(F)(F)c1ccc(C2Nc3cccc4cccc(c34)N2)cc1`, which Potency is on record?
Answer: inconclusive [inhibitor, single point]

Question: For `Cc1ccc2c(c1)C(=O)C(=O)N2Cc1ccc(Br)cc1`, which Potency is on record?
Answer: active: 0.92 µM

Question: For `Cc1ccc(S(=O)(=O)N2CCOCC2)cc1NC(=O)COC(=O)c1cnc(Cl)c(Cl)c1`, which Potency is on record?
Answer: inactive

Question: For `Cc1ccc(Cl)cc1N1CCN(S(=O)(=O)c2c(C)noc2C)CC1`, which Potency is on record?
Answer: inconclusive [inhibitor, single point]

Question: Which Potency does the source give for `COc1ccc(OC)c(S(=O)(=O)n2nc(C)cc2C)c1` here?
Answer: inactive

Question: Which Potency does the source give for `CN(C)C(=O)c1cc(C(=O)c2ccccc2C(F)(F)F)c[nH]1` here?
Answer: inconclusive [inhibitor, single point]

Question: For `Cc1ccc(C(=O)NC(=S)Nc2ccc(CN3CCOCC3)cc2)cc1`, which Potency is on record?
Answer: active: 20.6 µM

Question: For `COc1ccc2cc(C(C)C(=O)Nc3cccc(S(=O)(=O)N(C)C)c3)ccc2c1` (stereo unspecified), which Potency is on record?
Answer: inconclusive [inhibitor, single point]

Question: For `COC(=O)c1c(NC(=O)CCC(=O)O)sc(Cc2ccccc2)c1C`, which Potency is on record?
Answer: inactive

Question: With `O=C(Nc1ccc(OC(F)(F)F)cc1)NC1CCC(Oc2ccc(C(=O)O)cc2)CC1` (stereo unspecified) as the molecule, how does the Potency read?
Answer: inconclusive [inhibitor, single point]

Question: For `COc1ccc(C2C(=O)N(C3CCCCC3)CC(=O)N2CCC2=CCCCC2)cc1` (stereo unspecified), which Potency is on record?
Answer: inconclusive [inhibitor, single point]

Question: Which Potency does the source give for `CCN(CC)S(=O)(=O)c1ccc(N/N=C/c2cc(OC)c(OC)cc2OC)nc1` here?
Answer: inactive

Question: Which Potency does the source give for `Cc1cccc(OCCc2nnc(N)s2)c1C` here?
Answer: inactive

Question: For `Cc1cc(C)n2ncc(-c3cccc(Br)c3)c2n1`, which Potency is on record?
Answer: inactive

Question: For `NNc1nc2sc3c(c2c(=O)[nH]1)CCc1ccccc1-3`, which Potency is on record?
Answer: inconclusive [inhibitor, single point]

Question: For `COc1ccc(N(CC(=O)N2CCN(C)CC2)S(=O)(=O)c2cc(C)ccc2OC)cc1Cl`, which Potency is on record?
Answer: inactive

Question: With `CC1CCC(NC(=O)c2ccc3c(c2)N(Cc2ccccc2F)C(=O)c2ccccc2S3=O)CC1` (stereo unspecified) as the molecule, how does the activity change, negative = growth inhibition read?
Answer: inconclusive: -30.1% [inhibitor]

Question: For `COc1ccc(C(C)=O)cc1COC(=O)c1c(C)noc1C`, which Potency is on record?
Answer: inconclusive [inhibitor, single point]
